According to a collection of fitness landscapes (doi:10.1126/science.1257360):
This is one part of the list.

B1: PhoQ; a variant is named by its letters at X, in order, P23837 (parent)
chain: MKKLLRLFFPLSLRVRFLLATAAVVLVLSLAYGMVALIGYSVSFDKTTFRLLRGESNLFYTLAKWENNKLHVELPENIDKQSPTMTLIYDENGQLLWAQRDVPWLMKMIQPDWLKSNGFHEIEADVNDTSLLLSGDHSIQQQLQEVREDDDDAEMTHSVAVNVYPATSRMPKLTIVVVDTIPVELKSSYMVWSWFIYVLSANLLLVIPLLWVAAWWSLRPIEALAKEVRELEEHNRELLNPATTRELTSLVRNLNRLLKSERERYDKYRTTLTDLTHSLKTPLXXLQXXLRSLRSEKMSVSDAEPVMLEQISRISQQIGYYLHRASMRGGTLLSRELHPVAPLLDNLTSALNKVYQRKGVNISLDISPEISFVGEQNDFVEVMGNVLDNACKYCLEFVEISARQTDEHLYIVVEDDGPGIPLSKREVIFDRGQRVDTLRPGQGVGLAVAREITEQYEGKIVAGESMLGGARMEVIFGRQHSAPKDE

Variants of: B1
Test: enrichment ratio after two sorts for PhoP signalling (ratio (wild type AVST 3.29)); higher = more functional
Conditions: with PhoP (E. coli)

Variant | enrichment ratio
DRCL | ≤ 0.25
KAKM | ≤ 0.25
EYRL | ≤ 0.25
PPAM | ≤ 0.25
NNME | ≤ 0.25
TIYN | 2.88
VWKY | ≤ 0.25
SVLF | 0.424
MQNA | ≤ 0.25
YDKH | ≤ 0.25
TYGW | ≤ 0.25
HIQW | ≤ 0.25
DNGI | ≤ 0.25
RWFY | ≤ 0.25
KLFK | ≤ 0.25
QRNQ | ≤ 0.25
MSPC | ≤ 0.25
LASH | ≤ 0.25
FSYA | ≤ 0.25
IWTV | ≤ 0.25
TGCW | 3.49
MCES | ≤ 0.25
YMNA | ≤ 0.25
KHWF | ≤ 0.25

Variant | enrichment ratio
LLCN | ≤ 0.25
RDQN | ≤ 0.25
WEWS | ≤ 0.25
GAAG | ≤ 0.25
QFWW | ≤ 0.25
CMAH | 7.79
FEQM | ≤ 0.25
NCFY | ≤ 0.25
VNLQ | 0.791
NTDV | ≤ 0.25
QRLF | ≤ 0.25
RNDA | ≤ 0.25
DSLN | ≤ 0.25
LKFV | ≤ 0.25
LRMQ | ≤ 0.25
DERM | ≤ 0.25
HLGI | ≤ 0.25
WKLF | ≤ 0.25
DPFI | ≤ 0.25
YMTL | ≤ 0.25
IIMG | ≤ 0.25
SATT | 2.73
KSVE | ≤ 0.25
ANKY | ≤ 0.25

Variant | enrichment ratio
GTLF | 11.4
MTDN | ≤ 0.25
DARI | ≤ 0.25
FAIH | ≤ 0.25
KGIF | ≤ 0.25
YHRR | ≤ 0.25
QDYS | ≤ 0.25
YPKL | ≤ 0.25
EPRF | ≤ 0.25
HSYA | ≤ 0.25
YYLY | ≤ 0.25
GWVA | ≤ 0.25
SWAC | ≤ 0.25
LKLW | ≤ 0.25
GYMC | ≤ 0.25
YYEW | ≤ 0.25
PKYP | ≤ 0.25
QQSH | ≤ 0.25
KAEC | ≤ 0.25
GHAS | ≤ 0.25
RRKA | ≤ 0.25
VIKR | ≤ 0.25
LHWN | ≤ 0.25
ICTR | ≤ 0.25

Variant | enrichment ratio
WREF | ≤ 0.25
PKNG | ≤ 0.25
NFHG | ≤ 0.25
YMGD | ≤ 0.25
IDYM | ≤ 0.25
EDMH | ≤ 0.25
RHEV | ≤ 0.25
SFWF | ≤ 0.25
RWMY | ≤ 0.25
QAGN | 4.27
EFTC | ≤ 0.25
TMHW | ≤ 0.25
SVLM | 2.56
VRSG | ≤ 0.25
MNSA | ≤ 0.25
KGKK | ≤ 0.25
EGLY | ≤ 0.25
STST | 9.52
LFIR | ≤ 0.25
NHWR | ≤ 0.25
DHTA | ≤ 0.25
VKAH | ≤ 0.25
PHCS | ≤ 0.25
FGCP | ≤ 0.25

Variant | enrichment ratio
KPLP | ≤ 0.25
GNVK | ≤ 0.25
HGDY | ≤ 0.25
ISQF | ≤ 0.25
RWRR | ≤ 0.25
EANC | ≤ 0.25
IQQY | ≤ 0.25
FMSI | 0.483
LSWQ | 4.56
IDIN | ≤ 0.25
SIES | ≤ 0.25
GMMI | ≤ 0.25
AEIE | ≤ 0.25
NHMA | 16.2
EGVT | ≤ 0.25
NPAV | ≤ 0.25
GWGW | ≤ 0.25
VCWP | ≤ 0.25
QNYK | ≤ 0.25
VGVC | ≤ 0.25
KTQD | ≤ 0.25
KPGL | ≤ 0.25
MKMI | ≤ 0.25
NTEN | ≤ 0.25

Variant | enrichment ratio
KAVL | ≤ 0.25
QPPV | ≤ 0.25
GNII | 8.44
ANVW | ≤ 0.25
QFDY | ≤ 0.25
VFLP | ≤ 0.25
MGPF | ≤ 0.25
LSTP | ≤ 0.25
VTDM | ≤ 0.25
SGTG | 15.9
SNAK | ≤ 0.25
LLMH | ≤ 0.25
RCAE | ≤ 0.25
HPCH | ≤ 0.25
EKHT | ≤ 0.25
WHVW | ≤ 0.25
LFAK | ≤ 0.25
NVGK | ≤ 0.25
IACM | ≤ 0.25
STTR | ≤ 0.25
QQIC | ≤ 0.25
AFID | ≤ 0.25
VKNR | ≤ 0.25
HSVN | ≤ 0.25

Variant | enrichment ratio
MLTH | ≤ 0.25
KKTG | ≤ 0.25
LGYY | ≤ 0.25
WHGW | ≤ 0.25
DFNT | ≤ 0.25
ITTW | ≤ 0.25
LMHA | ≤ 0.25
GWRW | ≤ 0.25
FHMA | ≤ 0.25
KTHY | ≤ 0.25
WPVS | ≤ 0.25
PLCW | ≤ 0.25
QNEI | ≤ 0.25
KNKP | ≤ 0.25
SLQG | ≤ 0.25
ALAM | 12.2
VRAM | ≤ 0.25
HTYV | ≤ 0.25
AFAF | ≤ 0.25
LWKT | ≤ 0.25
HLRW | ≤ 0.25
DQCV | ≤ 0.25
PLPH | ≤ 0.25
TPKE | ≤ 0.25

Variant | enrichment ratio
YSQC | ≤ 0.25
FPDQ | ≤ 0.25
NCNG | ≤ 0.25
VDIK | ≤ 0.25
SVWF | ≤ 0.25
PDNK | ≤ 0.25
ELFL | ≤ 0.25
HRHA | ≤ 0.25
GDPN | ≤ 0.25
WGPV | ≤ 0.25
YKWC | ≤ 0.25
RHDN | ≤ 0.25
LTWW | ≤ 0.25
GFTR | ≤ 0.25
SWKY | ≤ 0.25
THSF | 4.98
DLNN | ≤ 0.25
LWGS | ≤ 0.25
IMWS | ≤ 0.25
PPRG | ≤ 0.25
YYWK | ≤ 0.25
KMRE | ≤ 0.25
QITP | ≤ 0.25
YTGV | ≤ 0.25

Variant | enrichment ratio
PVES | ≤ 0.25
YHQI | ≤ 0.25
HKWL | ≤ 0.25
QGSL | 11.2
TMMD | ≤ 0.25
GPSY | ≤ 0.25
FQQQ | ≤ 0.25
QSSP | ≤ 0.25
INES | ≤ 0.25
RVGR | ≤ 0.25
NLNF | ≤ 0.25
TINF | 1.79
GNDT | ≤ 0.25
GSPN | ≤ 0.25
KMGG | ≤ 0.25
ISVV | ≤ 0.25
LMPI | 0.258
NRHW | ≤ 0.25
IHPA | ≤ 0.25
PGSA | ≤ 0.25
LPMD | ≤ 0.25
AESK | ≤ 0.25
FVRN | ≤ 0.25
HSFQ | ≤ 0.25

Variant | enrichment ratio
QTYI | 12.9
MCCY | ≤ 0.25
APMA | ≤ 0.25
WASK | ≤ 0.25
HVYK | ≤ 0.25
PWVE | ≤ 0.25
NWPM | ≤ 0.25
VTWD | ≤ 0.25
WFQN | ≤ 0.25
KDSF | ≤ 0.25
THKP | ≤ 0.25
QSKW | ≤ 0.25
FSQN | ≤ 0.25
GCPM | ≤ 0.25
HDSF | ≤ 0.25
AELP | ≤ 0.25
NKFP | ≤ 0.25
ICNC | ≤ 0.25
VEIE | ≤ 0.25
YWAT | ≤ 0.25
FMWH | 1.52
AWDM | ≤ 0.25
YYGH | ≤ 0.25
ELYW | ≤ 0.25

Variant | enrichment ratio
LHMT | ≤ 0.25
FEAS | ≤ 0.25
TRFP | ≤ 0.25
ESNM | ≤ 0.25
RRVA | ≤ 0.25
AAMC | ≤ 0.25
WTQP | ≤ 0.25
VLTR | ≤ 0.25
EQSC | ≤ 0.25
DEAQ | ≤ 0.25
VWET | ≤ 0.25
ICSE | ≤ 0.25
PHEN | ≤ 0.25
DHHV | ≤ 0.25
RKKC | ≤ 0.25
LFEY | ≤ 0.25
WFEF | ≤ 0.25
DCMK | ≤ 0.25
DRFF | ≤ 0.25
SPSC | ≤ 0.25
NQPH | ≤ 0.25
DEVP | ≤ 0.25
TLQC | 3.19
MWLF | ≤ 0.25

Variant | enrichment ratio
VYHI | ≤ 0.25
FNSQ | ≤ 0.25
AVIT | 1.3
PAVI | ≤ 0.25
QVDA | ≤ 0.25
VEPW | ≤ 0.25
PGFE | ≤ 0.25
PKSE | ≤ 0.25
ALIA | 0.266
FAAA | ≤ 0.25
IHTA | ≤ 0.25
SNQT | 0.383
NDDC | ≤ 0.25
SIHS | 1.56
SFPR | ≤ 0.25
MNWH | 0.253
TNWT | ≤ 0.25
RNYQ | ≤ 0.25
YWRR | ≤ 0.25
THLI | 10.7
CSNS | ≤ 0.25
DNKC | ≤ 0.25
DNVD | ≤ 0.25
KQCR | ≤ 0.25

Variant | enrichment ratio
SYRD | ≤ 0.25
SRWF | ≤ 0.25
TLHH | ≤ 0.25
GHYF | ≤ 0.25
NTWF | ≤ 0.25
ENIW | ≤ 0.25
QQMV | ≤ 0.25
DSGF | ≤ 0.25
NYAM | ≤ 0.25
PTPE | ≤ 0.25
VGIQ | ≤ 0.25
FHGL | ≤ 0.25
RMYL | ≤ 0.25
FVWV | ≤ 0.25
HQIQ | ≤ 0.25
NSKM | ≤ 0.25
PTSY | ≤ 0.25
MSPN | ≤ 0.25
